Results taken from patent publication US12577196B2 (priority 2019, dated 2026).
Converted amounts (≈) assume the structure as drawn. Read-outs that look alike come from different tables or passages of the source.

Key:
[1] = system: Pseudomonas aeruginosa ATCC-9027; assay: microbe, parasite or virus in culture; details: ATCC9027
Description: (§1) MIC Determination by Broth Micro Dilution
(§2) Standardisation of Inoculum
(§3) The inoculums were mixed.
(§4) Inoculation and Incubation

[2] = system: Escherichia coli ATCC-8739; assay: microbe, parasite or virus in culture
Description: as §1, §2, §3, §4

US3-6-EGFP-HCMV-AD169 [3] = details: CC50/EC50, HCMV in MRC5 cells
US3-6-EGFP-HCMV-AD169 [4] = assay: microbe, parasite or virus in culture; details: Human betaherpesvirus 5, AD169, MRC5, 168 h

SMILES	MIC [1] [µg/mL]	MIC [2] [µg/mL]	MIC ([2]; Escherichia coli, ATCC8739) [µg/mL]	SI (CC50/EC50) (US3-6-EGFP-HCMV-AD169 [3])	EC50 (US3-6-EGFP-HCMV-AD169 [4]) [µg/mL]
Cc1ccc(C(C)C)cc1OC(=O)C[N+](C)(C)CCCCCCCCCC[N+](C)(C)CC(=O)Oc1cc(C(C)C)ccc1C [Formula IV, N1,N10-bis(2-(5-isopropyl-2-methylphenoxy)−2-oxoethyl)-N1,N1,N10,N10-tetramethyldecane-1,10-diaminium dichloride]	0.98	1.95	3.9	>3.66	32.8
Cc1ccc(C(C)C)c(OC(=O)C[N+](C)(C)CCCCCCCCCC[N+](C)(C)CC(=O)Oc2cc(C)ccc2C(C)C)c1 [Formula V, N1,N10-bis(2-(2-isopropyl-5-methylphenoxy)−2-oxoethyl)-N1,N1,N10,N10-tetramethyldecane-1,10-diaminium dichloride]	3.9	1.95	3.9		
CN[C@H](CC(C)C)C(=O)N[C@H]1C(=O)N[C@@H](CC(N)=O)C(=O)N[C@H]2C(=O)N[C@H]3C(=O)N[C@H](C(=O)N[C@H](C(=O)O)c4cc(O)cc(O)c4-c4cc3ccc4O)[C@H](O)c3ccc(c(Cl)c3)Oc3cc2cc(c3O[C@@H]2O[C@H](CO)[C@@H](O)[C@H](O)[C@H]2O[C@H]2C[C@](C)(N)[C@H](O)[C@H](C)O2)Oc2ccc(cc2Cl)[C@H]1O [Vancomycin, reference compound]			78 (≈ 53.8 µM)		
